{
  "source": "PubChem BioAssay AID1030",
  "about": "(National Center for Advancing Translational Sciences (NCATS), 2008)",
  "note": "About 16,000 (7.3%) of roughly 220,000 compounds were called active. The shares of active, inactive and inconclusive entries below differ from those in the screen. Calls come from the whole dose curve; as a rule, active = well fitted inhibition curve with a large enough effect (not every such curve was filed as active); inconclusive = small, poorly fitted or top-dose-only effect, or another doubt; inactive = no such curve, though single readings can be large or run the other way. No potency is given beside an inconclusive call; the fits are too rough. Potency is the fitted concentration of half-maximal effect; tags give direction and shape of the fitted curve.",
  "data": [
    {"molecular_target": "Aldehyde dehydrogenase 1A1 (Homo sapiens) (UniProt P00352)", "sequence (P00352 whole entry, looked up)": "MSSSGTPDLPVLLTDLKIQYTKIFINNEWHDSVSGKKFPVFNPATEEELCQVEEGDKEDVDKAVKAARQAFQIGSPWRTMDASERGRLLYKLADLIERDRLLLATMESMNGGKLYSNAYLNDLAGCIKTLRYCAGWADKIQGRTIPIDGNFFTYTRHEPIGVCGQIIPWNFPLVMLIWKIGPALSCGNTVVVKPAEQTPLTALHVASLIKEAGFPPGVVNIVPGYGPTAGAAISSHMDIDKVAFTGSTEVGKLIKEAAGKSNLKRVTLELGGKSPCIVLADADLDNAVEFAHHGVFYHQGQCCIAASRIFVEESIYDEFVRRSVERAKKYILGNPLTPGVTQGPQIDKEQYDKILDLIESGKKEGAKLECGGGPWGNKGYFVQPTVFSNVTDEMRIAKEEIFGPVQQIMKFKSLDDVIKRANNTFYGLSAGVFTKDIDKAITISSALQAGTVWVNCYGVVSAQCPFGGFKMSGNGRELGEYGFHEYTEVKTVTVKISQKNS", "assay": "qHTS Assay for Inhibitors of Aldehyde Dehydrogenase 1 (ALDH1A1);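 for activity, negative = inhibition: plate controls were no enzyme wells and a reference inhibitor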", "settings": "Purified ALDH1A1, NADH fluorescence, propionaldehyde substrate; series mostly up to 75.3 µM", "values": [
      {"smiles": "CSc1cccc(NC(=O)C2CCCN(S(=O)(=O)c3ccc(F)cc3)C2)c1", "note": "(configuration not stated)", "Potency": "inconclusive [inhibitor, single point]"},
      {"smiles": "CC1CN(c2nc3ccccc3nc2C(C#N)C(=O)NCc2ccc3c(c2)OCO3)CC(C)O1", "note": "(configuration not stated)", "Potency": "inconclusive [inhibitor, partial curve, poor fit]"},
      {"smiles": "Cc1ccccc1OCC(=O)N/N=C/c1ccc(N(C)C)cc1", "Potency": "inconclusive [inhibitor, partial curve]"},
      {"smiles": "O=C(OC1CCOC1=O)c1ccc(S(=O)(=O)N2CCCCCC2)cc1", "note": "(configuration not stated)", "Potency": "inconclusive [inhibitor, single point]"},
      {"smiles": "COc1ccc(N2CCN(C(CNC(=O)C(=O)NCc3ccc4c(c3)OCO4)c3ccco3)CC2)cc1", "note": "(configuration not stated)", "Potency": "inactive"},
      {"smiles": "O=C(c1ccncc1)N1CCC2(CCCN(c3cccc(-c4ccccc4)c3)C2)CC1", "Potency": "inactive"},
      {"smiles": "CCOc1cc(CNc2ncc(-c3ccc(OC)cc3)n2C)ccc1O", "Potency": "active: 14.1 µM"},
      {"smiles": "COc1ccc2c(CC(=O)N3CCc4ccccc43)coc2c1", "Potency": "inconclusive [inhibitor, single point]"},
      {"smiles": "Cn1cc(SCC(=O)Nc2ccc3c(c2)OCO3)c2ccccc21", "Potency": "inconclusive [inhibitor, partial curve]"},
      {"smiles": "Cc1ccn2c(-c3csc(NCc4ccco4)n3)c(C)nc2c1", "Potency": "inconclusive [inhibitor, partial curve]"},
      {"smiles": "CCOC(=O)C1CCCN(C/C(O)=C(\\C#N)c2nc(-c3ccccc3)cs2)C1", "note": "(configuration not stated)", "Potency": "active: 31.6 µM"},
      {"smiles": "COc1ccc(-c2cc(=O)c3c(O)c(OC)c(OC)c(OC)c3o2)cc1OC", "Potency": "active: 20 µM"},
      {"smiles": "CCOC(=O)C1=C(C)NC(=O)C(C#N)C1c1ccco1", "note": "(configuration not stated)", "Potency": "inactive"},
      {"smiles": "O=C(COc1cccc(Br)c1)N/N=C/C(=O)c1ccccc1", "Potency": "inactive"},
      {"smiles": "Cc1[nH]n(-c2ccccc2)c(=O)c1/C=N/NC(=O)COc1ccccc1[N+](=O)[O-]", "Potency": "inactive"},
      {"smiles": "Cc1ccc(-c2csc(NC(=O)c3cc([N+](=O)[O-])ccc3N3CCOCC3)n2)cc1", "Potency": "inactive"},
      {"smiles": "COC(=O)c1ccc(C(/C=C/[C@@H](C)C(=O)NCc2ccccc2)NC(=O)OCc2ccccc2)cc1", "note": "(some centres not stated)", "Potency": "inactive"},
      {"smiles": "Cc1c(-c2cccs2)[n+](=O)c2c(n1[O-])CCC2", "Potency": "inactive"},
      {"smiles": "COC(=O)/C=C/C(=O)Nc1cccc(C(F)(F)F)c1", "Potency": "inconclusive [inhibitor, single point]"},
      {"smiles": "N#Cc1ccc(CSc2ncnc3c2cnn3Cc2ccccc2)cc1", "Potency": "inconclusive [inhibitor, single point]"},
      {"smiles": "COc1ccc(NS(=O)(=O)c2ccc(NC(=S)NC(=O)C(C)C)cc2)cc1", "Potency": "inconclusive [inhibitor, single point]"},
      {"smiles": "COc1ccc(O[C@H]2C=C[C@@H](c3ccccc3)O[C@@H]2COC(=O)CCC(C)=NO[C@@H]2O[C@H](COC(C)=O)[C@@H](OC(C)=O)[C@H](OC(C)=O)[C@H]2OC(C)=O)cc1", "Potency": "inconclusive [inhibitor, single point]"},
      {"smiles": "N#C/C(=C\\c1ccc(OCC(N)=O)cc1)c1ccccc1", "Potency": "inconclusive [inhibitor, single point]"},
      {"smiles": "CC(C)C(=O)NC(=S)Nc1ccc(S(=O)(=O)NC(C)(C)C)cc1", "Potency": "inconclusive [inhibitor, partial curve, poor fit]"},
      {"smiles": "Cc1ccc(NC(=O)c2ccccc2OCc2ccc([N+](=O)[O-])cc2)nc1", "Potency": "inactive"},
      {"smiles": "CCOC(=O)c1sc2nc3n(c(=O)c2c1C)CCCCC3", "Potency": "inconclusive [inhibitor, partial curve]"},
      {"smiles": "CN(C)C(CNC(=O)CN1C(=O)NC2(CCc3ccccc32)C1=O)c1ccco1", "note": "(configuration not stated)", "Potency": "inactive"},
      {"smiles": "CCOC(=O)c1c(CN(C)C)n(-c2ccccc2)c2cc(Br)c(O)cc12", "Potency": "inactive"},
      {"smiles": "Cc1ccc(S(=O)(=O)N2c3ccccc3OCC2c2ccccc2)cc1", "note": "(configuration not stated)", "Potency": "inactive"},
      {"smiles": "NC(=O)Nn1c(CCC(=O)O)ccc1-c1ccc(F)cc1", "Potency": "inconclusive [inhibitor, partial curve]"},
      {"smiles": "Cc1c(NC(=S)NC(=O)C(C)(C)C)cccc1[N+](=O)[O-]", "Potency": "inconclusive [inhibitor, single point]"},
      {"smiles": "O=C(N/N=C\\c1ccccc1)c1sccc1-n1cccc1", "Potency": "inconclusive [inhibitor, single point]"},
      {"smiles": "O=C(CNC(=O)c1cccc(OC(F)F)c1)OCn1nnc2ccccc2c1=O", "Potency": "inactive"},
      {"smiles": "CCN(CC)S(=O)(=O)c1cccc(-c2n[nH]c(=S)n2CC(C)C)c1", "Potency": "active: 7.94 µM"},
      {"smiles": "CC(C)[C@](N)(C(=O)O)c1ccccc1", "activity, negative = inhibition": "inactive: -13.5% [at 13.5 µM]"},
      {"smiles": "O=C1COC(c2ccccc2)C2CCCCN12", "note": "(configuration not stated)", "Potency": "inactive"},
      {"smiles": "Cc1cc(C)c(C)c(S(=O)(=O)N2CCN(C)CC2)c1C", "Potency": "inactive"},
      {"smiles": "CC(C)CC(NC(=O)C1CCCCC1)C(=O)N1CCN(c2ccccn2)CC1", "note": "(configuration not stated)", "Potency": "inconclusive [inhibitor, single point]"},
      {"smiles": "Cc1nn(Cc2ccc(Cl)c(Cl)c2)c(C)c1NC(=O)c1cc(-c2ccco2)on1", "Potency": "inconclusive [inhibitor, single point]"},
      {"smiles": "O=C(N/N=C/c1c[nH]c2ccccc12)c1[nH]c2ccc(Br)cc2c1-c1ccccc1", "Potency": "inconclusive [inhibitor, single point]"},
      {"smiles": "O=C(NC(Cc1ccccc1)C(=O)O)/C(=C\\c1ccco1)NC(=O)c1ccccc1Br", "note": "(configuration not stated)", "Potency": "inconclusive [inhibitor, single point]"},
      {"smiles": "N#Cc1sc2nc(-c3ccccc3)cc(C(F)(F)F)c2c1N", "Potency": "inactive"},
      {"smiles": "O=C(C1CCN(S(=O)(=O)c2cccc3nsnc23)CC1)N1CC=C(c2ccccc2)CC1", "Potency": "inconclusive [inhibitor, single point]"},
      {"smiles": "CC1CCN(CCCNC(=O)c2ccc3c(=O)n(CCc4ccccc4)c(=O)[nH]c3c2)CC1", "Potency": "inconclusive [inhibitor, single point]"},
      {"smiles": "Fc1ccc(CSc2ncnc3c2oc2ccccc23)cc1", "Potency": "inactive"},
      {"smiles": "O=C(CNC(=S)N(CCCN1CCOCC1)Cc1cccs1)NCCN1CCOCC1", "Potency": "inactive"},
      {"smiles": "COC(=O)[C@@]1(Cc2ccc(F)cc2)[C@H]2c3cc(C(=O)N(C)C)n(Cc4cc(F)c(F)c(F)c4)c3C[C@H]2CN1C(=O)c1ccccc1", "Potency": "inactive"}
    ]}
  ]
}
